SMILES strings stand for the structures. About 1,200 (2.5%) of roughly 48,000 compounds were called active. Not shown: some 2% with an inconclusive outcome.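 How the source made its calls: active means activation of at least 60% and not above a set upper limit (about 1 call in 100 departs from these limits); inconclusive means activation of 40% to 60%, or above that upper limit; inactive means activation under 40%.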 The list shows a part of the results.

The experiment addresses Probable G-protein coupled receptor 32 (Homo sapiens) (UniProt O75388). Kind of experiment: qHTS for Agonists of Human Resolvin D1 Receptor DRV1. Further: 0% is about no effect. The conditions noted are these: CHO-K1 GPR32 beta-arrestin PathHunter luminescence, 90 min; at 76.9 µM; stronger effect = higher value; zero percent set by DMSO-only wells. The method, boiled down: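 CHO-K1 cells stably expressing ProLink-tagged GPR32 and Enzyme Activator-tagged beta-arrestin were seeded at 2,500 cells/well overnight, exposed to compounds for 90 min at 37 °C, then read by beta-Gal complementation chemiluminescence after 1 h detection reagent.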
UniProt O75388, sequence (O75388 whole entry, looked up): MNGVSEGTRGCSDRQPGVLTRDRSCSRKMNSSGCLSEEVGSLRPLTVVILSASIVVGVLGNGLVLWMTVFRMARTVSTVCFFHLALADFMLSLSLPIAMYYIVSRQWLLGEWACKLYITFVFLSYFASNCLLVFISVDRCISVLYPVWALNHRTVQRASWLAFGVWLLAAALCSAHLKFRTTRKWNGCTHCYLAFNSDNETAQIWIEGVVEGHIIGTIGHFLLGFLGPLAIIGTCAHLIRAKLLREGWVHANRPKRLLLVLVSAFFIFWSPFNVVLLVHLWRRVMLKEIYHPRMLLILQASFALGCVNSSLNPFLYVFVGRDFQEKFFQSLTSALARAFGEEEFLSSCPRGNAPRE
(Quantitative high-throughput screening tests each substance at several concentrations.)
With `Cc1cccc(NC(=O)c2sc3nc4c(cc3c2N)CCCCCC4)c1C`, the activation was inactive: -4.72%.

As to `COC(=O)c1c(NC(=O)Cc2coc3ccc(C)cc23)sc2c1CCC2`, the activation is inactive: -5.08%.

On to `C/C(=N\O)c1ccc(OCC(=O)N2CCCCC2)cc1`, for which the activation was inactive: -2.59%.

Regarding `Cc1ccc(C(=O)c2ccc(CC(=O)O)n2C)cc1`, the activation is inactive: -24.6%.

In the case of `Cc1cc(F)ccc1-n1nnc(C(N)=O)c1C`, the activation is inactive: 0.629%.

Regarding `Cc1ccccc1Nc1c(-c2cccc(N(C)C)c2)nc2ccc(Br)cn12`, the activation is inactive: -22.6%.

Consider `CC(=O)c1cccc(NC(=O)c2c(-c3ccccc3)c(-c3ccccc3)nn(C)c2=O)c1`, for which the activation was inactive: -24%.

On to `CN(Cc1ccccc1)c1ccc(-c2nc(-c3ccco3)no2)cc1[N+](=O)[O-]`, for which the activation was inactive: 5.81%.

With `O=C(c1ccccc1Cl)N(Cc1ccco1)Cc1ccco1`, the activation was inactive: -17.3%.

As for `Cc1ccc(CCNC(=O)c2cc(Nc3ccc(C)c(C)c3)nc3ccccc23)cc1`, the activation is inactive: 20.9%.

On to `COc1ccc(C2C(C(N)=O)=C(C)Nc3nc(CCCO)nn32)cc1` (stereo not given), for which the activation is inactive: 5.92%.

Take `Cc1cc(=O)n(CC(=O)Nc2ccc([N+](=O)[O-])cc2)c(-n2nc(C)cc2C)n1`: the activation was inactive: -15.1%.

On to `CCOC(=O)c1ccc(NC(=O)CC2C(=O)N(c3ccc(C)cc3)C(=O)N2C2CCCCC2)cc1` (stereo not given), for which the activation was inactive: 4.71%.

In the case of `Cc1cc(C(F)(F)F)nn1-c1nc(-c2ccccc2)cc(C(F)(F)F)n1`, the activation was inactive: -3.7%.

For `CCCCN(CCCC)CCCOC(=O)c1ccc(N)cc1`, the activation was inactive: 6.9%.

With `COc1ccc(CCN2C(=O)c3[nH]nc(-c4ccccc4O)c3C2c2cccc(OC)c2)cc1` (stereo not given), the activation was inactive: -15.2%.

`Cc1ccccc1NC(=O)Cn1c(=O)n(CCc2ccccc2)c(=O)c2sc3ccccc3c21`: the activation is inactive: 4.6%.

As to `Cc1[nH]c2ccccc2c1C(c1ccccc1)c1cccs1` (stereo not given), the activation was active: 73.6%.

For `Cc1cccc(-n2c(SCc3nc(-c4ccccc4C)no3)nnc2-c2ccccc2)c1`, the activation was inactive: 2.77%.

`CN1CCN(c2oc(/C=C/c3ccc(F)cc3)nc2C#N)CC1`: the activation is inactive: -14.8%.

Regarding `FC(F)(F)C(Cl)Br` (stereo not given), the activation is inactive: -8.36%.

As for `O=C(O)CN1C(=O)c2cccc3cccc(c23)C1=O`, the activation is inactive: -0.204%.

Turning to `CCc1nn(CC(=O)NC(C)CC)c(=O)c2cc3c(OC)cccc3n12` (stereo not given), the activation was inactive: -7.83%.

Consider `COc1cc(NC(=O)c2nn(-c3ccc(C)cc3)c(=O)c3c2c2ccccc2n3C)cc(OC)c1OC`, for which the activation was inactive: -5.03%.

Consider `CCOC(=O)c1ccccc1NS(=O)(=O)c1ccc(N2CCCCS2(=O)=O)cc1`, for which the activation was inactive: -2.43%.

The record behind these values is PubChem BioAssay AID1346428 (National Center for Advancing Translational Sciences (NCATS), 2018).
